Data as given in the supplement of paper PMC9446081.
The whole screen tested about 39,000 compounds, of which about 220 (0.56%) showed activity. The list shows a part of the results.
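Note: static incubation at 37 °C against the wild-type strain, values averaged over two biological replicates.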

These molecules were tested on Escherichia coli K-12 BW25113 (assay: relative growth (OD600 normalised to plate interquartile mean) (fraction); higher = less growth inhibition, active = 0.2 or less). Conditions: 50 µM; LB; incubation time: overnight (16-24 h).
`C[C@H]1CN([C@@H](C)CO)C(=O)c2cccc(NS(=O)(=O)c3cn(C)cn3)c2O[C@@H]1CN(C)CC1CCCCC1` was tested, and the relative growth was inactive: 1. `O=c1[nH]c(=O)n(Cc2ccccc2)c2nc[nH]c12` was tested, and the relative growth was inactive: 0.984. For `CN(C)C1C(O)=C(C(N)=O)C(=O)C2(O)C(O)=C3C(=O)c4c(O)ccc(Cl)c4C(C)(O)C3CC12.Cl` (stereo not given), the relative growth was active: 0.0595. With `Cc1ccc2c(c1)c1nc3ccccc3nc1n2Cc1ccccc1` the relative growth was inactive: 1.01. With `C[C@@H]1CN([C@@H](C)CO)C(=O)c2cc(NS(=O)(=O)c3cccs3)ccc2O[C@H]1CN(C)S(=O)(=O)c1cn(C)cn1` the relative growth was inactive: 1. With `COc1cccc(c1)CN1CC[C@]2(CC1)CN([C@H](CO)c1c2c2ccc(cc2n1C)OC)C(=O)Nc1ccc(cc1)F` the relative growth was inactive: 0.997. In the case of `C[C@@H]1CN([C@@H](C)CO)C(=O)c2cc(NS(=O)(=O)c3cn(C)cn3)ccc2O[C@H]1CN(C)S(=O)(=O)c1ccc(F)cc1`, the relative growth is reported as inactive: 0.98. With `Nc1nnc(N[C@H]2CCCCNC2=O)[nH]1` the relative growth was inactive: 0.989. `C[C@@H]1CN([C@H](C)CO)C(=O)c2cc(NS(=O)(=O)c3ccc(Cl)cc3)ccc2O[C@@H](C)CCCCO[C@@H]1CN(C)Cc1ccc(C(=O)O)cc1` was tested, and the relative growth was inactive: 0.978. In the case of `CC(=O)OC1CC2C(C)(C)C=CCC2(C)C2CCC3(C)C(c4ccoc4)OC(=O)C4OC43C12C` (stereo not given), the relative growth is reported as inactive: 1.16. For `C[C@@H]1CCCCO[C@H](CN(C)C(=O)c2ccccc2)[C@H](C)CN([C@@H](C)CO)C(=O)c2cc(NC(=O)Nc3ccccc3)ccc2O1`, the relative growth was inactive: 0.99. In the case of `COCC(=O)N1C[C@@H](C)[C@@H](OC)CN(C)C(=O)c2cc(NC(=O)Nc3ccccc3)ccc2OC[C@H]1C`, the relative growth is reported as inactive: 1.01. In the case of `COCC(=O)Nc1ccc2c(c1)C(=O)N(C)[C@H]1CC[C@H](CC(=O)N3CCc4ccccc4C3)O[C@H]1CO2`, the relative growth is reported as inactive: 0.981. With `C[C@H](CO)N1C[C@H](C)[C@H](CN(C)Cc2ccc(Oc3ccccc3)cc2)Oc2c(NC(=O)Nc3ccccc3)cccc2C1=O` the relative growth was inactive: 1.05. `CN1C(=O)c2cc(NS(C)(=O)=O)ccc2OC[C@@H]2O[C@H](CC(=O)N3CCOCC3)CC[C@H]21` was tested, and the relative growth was inactive: 0.891. In the case of `CC(C)N1CC[C@@H](CN(C)Cc2ccc(C(=O)O)cc2)Oc2cc(-c3ccc(C(F)(F)F)cc3)ccc2S1(=O)=O`, the relative growth is reported as inactive: 0.936. `C[C@H]1CN([C@@H](C)CO)C(=O)c2cc(NC(=O)CCCCCC(=O)Nc3ccccc3N)ccc2O[C@@H]1CN(C)C(=O)Nc1ccccc1` was tested, and the relative growth was inactive: 1. For `COc1ccc(NC(=O)N(C)C[C@H]2OCCCC[C@H](C)Oc3ccc(NC(=O)Nc4cccc5ccccc45)cc3C(=O)N([C@H](C)CO)C[C@@H]2C)cc1`, the relative growth was inactive: 0.991. With `C[C@@H]1CN([C@H](C)CO)C(=O)c2cc(NC(=O)Nc3ccccc3)ccc2O[C@@H]1CN(C)Cc1ccc(Cl)c(Cl)c1` the relative growth was inactive: 1.02. With `C[C@@H]1CN([C@H](C)CO)C(=O)c2cccc(NC(=O)c3ccc(-c4nccs4)cc3)c2O[C@@H]1CN(C)S(=O)(=O)c1cn(C)cn1` the relative growth was inactive: 1.03. For `C[C@H]1CN([C@@H](C)CO)C(=O)c2cc(NC(=O)CCCN(C)C)ccc2O[C@@H]1CN(C)S(=O)(=O)c1cn(C)cn1`, the relative growth was inactive: 0.99. For `O=[N+]([O-])c1cc(N(CCO)CCO)ccc1NCCO`, the relative growth was inactive: 1.06. In the case of `C[C@@H]1CCCCO[C@@H](CN(C)S(=O)(=O)c2ccc(Cl)cc2)[C@@H](C)CN([C@@H](C)CO)C(=O)c2cc(NC(=O)Nc3ccccc3)ccc2O1`, the relative growth is reported as inactive: 1.01. `CC(=O)N1CCN(C)CC1` was tested, and the relative growth was inactive: 1.01. In the case of `C[C@@H]1CN([C@@H](C)CO)C(=O)c2cc(NC(=O)Cn3cnnn3)ccc2O[C@@H]1CN(C)Cc1ccc(C(=O)Nc2ccccc2N)cc1`, the relative growth is reported as inactive: 1.04. `C[C@H]1CN([C@@H](C)CO)C(=O)CCCn2cc(nn2)CO[C@@H]1CN(C)C(=O)Nc1cccc(Oc2ccccn2)c1` was tested, and the relative growth was inactive: 1.02. In the case of `C[C@H](CO)N1C[C@H](C)[C@H](CN(C)C(=O)Cc2ccccc2)OCCCC[C@H](C)Oc2ccc(NS(=O)(=O)c3ccc(F)cc3)cc2C1=O`, the relative growth is reported as inactive: 0.977. In the case of `C[C@@H]1CCCCO[C@@H](CN(C)Cc2ccc3c(c2)OCO3)[C@H](C)CN([C@H](C)CO)C(=O)c2cc(NC(=O)c3ccccc3)ccc2O1`, the relative growth is reported as inactive: 0.977. `C[C@@H]1CN([C@H](C)CO)C(=O)c2cccc(NC(=O)c3nc4ccccc4s3)c2O[C@@H]1CN(C)Cc1ccc(C(=O)Nc2ccccc2N)cc1` was tested, and the relative growth was inactive: 1.06. `NC[C@@H]1CC(=O)N(Cc2ccccc2)C1` was tested, and the relative growth was inactive: 0.976. With `COc1c(Cl)c(C)c(C(=O)Oc2cc(C)c(C(=O)O)c(O)c2)c(O)c1Cl` the relative growth was inactive: 1.11. `C[C@@H]1CN([C@H](C)CO)C(=O)Cc2cc(NS(=O)(=O)c3ccccc3)ccc2O[C@@H]1CN(C)Cc1ccc(C(=O)O)cc1` was tested, and the relative growth was inactive: 0.983. `C[C@@H]1CN([C@H](C)CO)C(=O)c2cccc(NC(=O)C3CC3)c2O[C@@H]1CN(C)Cc1ccc(Oc2ccccc2)cc1` was tested, and the relative growth was inactive: 1.01. In the case of `O=C(C[C@@H]1C[C@@H]2c3cc(NC(=O)C4CCOCC4)ccc3O[C@@H]2[C@@H](CO)O1)NCCN1CCCCC1`, the relative growth is reported as inactive: 0.998. `CC1(C)OC(=O)C2(C(=O)O1)[C@@H](c1ccc(-c3ccc(Br)cc3)cc1)CC(=O)C[C@H]2c1ccccc1` was tested, and the relative growth was inactive: 0.975. In the case of `C[C@H](CO)N1C[C@H](C)[C@H](CN(C)CC2CCCCC2)Oc2ccc(NC(=O)Nc3ccc(C(F)(F)F)cc3)cc2CC1=O`, the relative growth is reported as inactive: 0.983. In the case of `C[C@@H]1CN([C@@H](C)CO)S(=O)(=O)c2ccc(-c3cncnc3)cc2O[C@H]1CN(C)C(=O)Cc1cccnc1`, the relative growth is reported as inactive: 0.98. With `COC(=O)Cc1cc(=O)n(-c2ccccc2)[nH]1` the relative growth was inactive: 1.04. With `COc1ccc2c3c(n(c2c1)C)[C@@H](CO)N(C[C@]13CCN(CC1)S(=O)(=O)c1cn(cn1)C)C(=O)Nc1ccc(cc1)F` the relative growth was inactive: 1.02. In the case of `C[C@@H]1CCCCO[C@@H](CN(C)S(=O)(=O)c2ccc(F)cc2)[C@H](C)CN([C@@H](C)CO)C(=O)c2cc(NC(=O)NC3CCCCC3)ccc2O1`, the relative growth is reported as inactive: 1.01.
